SMILES strings stand for the structures. Several values for one entry are separate records, joined by “and”; a condition that tells them apart may be missing. Equal entries are not always repeated. The whole screen tested about 48,000 compounds, of which about 1,200 (2.5%) were called active. Not shown: some 2% with an inconclusive outcome.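 The calls were made as follows: active = activation of at least 60% and not above a set upper limit (about 1 call in 100 departs from these limits); inconclusive = activation of 40% to 60%, or above that upper limit; inactive = activation under 40%.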 The list shows a part of the results.

This assay addresses Probable G-protein coupled receptor 32 (Homo sapiens) (UniProt O75388). The assay is described as follows: qHTS for Agonists of Human Resolvin D1 Receptor DRV1. Also: 0% is about no effect. The note with it: CHO-K1 GPR32 beta-arrestin PathHunter luminescence, 90 min; at 76.9 µM; active compounds read high; zero percent set by DMSO-only wells. In short, it runs like this: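 CHO-K1 cells stably expressing ProLink-tagged GPR32 and Enzyme Activator-tagged beta-arrestin were seeded at 2,500 cells/well overnight, exposed to compounds for 90 min at 37 °C, then read by beta-Gal complementation chemiluminescence after 1 h detection reagent.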
UniProt O75388, sequence (O75388 whole entry, looked up): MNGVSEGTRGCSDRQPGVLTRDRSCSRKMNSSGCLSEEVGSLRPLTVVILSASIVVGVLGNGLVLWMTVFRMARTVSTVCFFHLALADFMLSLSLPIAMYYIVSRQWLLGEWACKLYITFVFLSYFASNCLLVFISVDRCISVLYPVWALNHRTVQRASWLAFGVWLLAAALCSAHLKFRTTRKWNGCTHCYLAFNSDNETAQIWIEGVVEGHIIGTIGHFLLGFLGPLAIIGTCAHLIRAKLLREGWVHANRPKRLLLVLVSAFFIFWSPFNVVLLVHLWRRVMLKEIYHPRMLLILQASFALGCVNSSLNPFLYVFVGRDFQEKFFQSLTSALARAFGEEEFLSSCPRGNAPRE
Take `Cc1ccc2nc(NC(=O)c3ccc(S(=O)(=O)N4CCC(C)CC4)cc3)sc2c1`: the activation was inactive: 0.0013%. In the case of `CCc1cccc(CC)c1NC(=O)c1c(C)oc2ccc(O)c(CN3CCCC3)c12`, the activation is inactive: 0.05%. Under `CCCCNC(=O)c1ccc2c(c1)N=C(CC)c1ccccc1S2` stands inactive: -22.8%; under `Cc1ccc(N2CC(NC(=O)c3cccs3)CC2=O)cc1` (centres undefined), inactive: 0.0378%; under `CN1CCN(CCNC(=O)c2cnn(-c3ccc(F)cc3)c2C2CCN(C(=O)OC(C)(C)C)CC2)CC1`, inactive: 4.86%. Turning to `O=C(CCCN1C(=O)c2cccnc2Oc2ccc(Cl)cc21)NCc1ccc(F)cc1`, the activation was inactive: -8.72%.

For the molecule `Cc1ccc(N2C(=O)CSC23C(=O)N(CC(=O)NCc2ccccc2)c2ccccc23)cc1` (centres undefined), the activation is inactive: -6%. For `O=C(Nc1ccccc1)Nc1nnc(SCC(=O)N2CCCCC2)s1`, the activation was inactive: 13.5%. For `CC1=C(c2ccc(C)c(C)c2)S(=O)(=O)N(Cc2ccc(C(=O)Nc3cc(F)ccc3F)cc2)C1=O`, the activation was inactive: -9.94%. On to `Cc1ccc2c(c1)C(=O)OC(C(=O)Nc1ccccc1C(=O)O)C2` (centres undefined), for which the activation was inactive: 20%.

On to `CCOc1ccc(-n2cc(-c3ccccc3)c3c(NC4CCCC4)ncnc32)cc1`, for which the activation was inactive: -34.4%. In the case of `O=C(CN1C(=O)C2(SCC(=O)N2c2ccc(F)cc2)c2ccccc21)NC1CCCCC1` (centres undefined) it was inactive: -8.72%; in that of `CCc1cccc(NC(=O)CN2CCCN(Cc3cccc(C)c3)S2(=O)=O)c1`, inactive: 46.5%. As to `COc1ccc(NC(=O)N2CCc3c([nH]c4ccc(OC)cc34)C2c2ccc(OC)cc2)cc1` (centres undefined), the activation is inactive: -24%. Consider `COc1ccc2nc(N3CCN(C(=O)C4CC4)CC3)sc2c1`, for which the activation was inactive: 6.34%. Under `COC(=O)c1cc2oc3ccccc3c2n1Cc1c(F)cccc1Cl` stands inactive: -13.7%; under `CCN(CC)C(=O)C1CCCN(c2ncnc3onc(C)c23)C1` (centres undefined), inactive: 13%; under `COc1ccc(N2CCN(C(=O)c3ccc4nc(N5CCC(C)CC5)sc4c3)CC2)cc1`, inactive: 10.7%. `Cc1ccc(Cl)cc1N(C)C(=O)c1cnc(N2CCOCC2)c2ccccc12`: the activation is inactive: -10.1%. Turning to `COc1cccc(-c2nc3c(C#N)c[nH]n3c2NC2CCCCC2)c1OC`, the activation was inactive: -28%. As for `CC(NC(=O)c1sc2ncccc2c1-n1cccc1)c1ccccc1` (centres undefined), the activation was inactive: -15%.

Regarding `O=C(NCC(c1cccnc1)N1CCN(Cc2ccccc2)CC1)C(=O)Nc1cccc(F)c1` (centres undefined), the activation was inactive: -16.4%. In the case of `COc1cc(Nc2c(C#N)cnc3cc(OCCCN4CCN(C)CC4)c(OC)cc23)c(Cl)cc1Cl` it was inactive: 45.9%. In the case of `Cc1ccc(Cn2c(=O)n(CC3CCC(C(=O)N4CCOCC4)CC3)c(=O)c3sccc32)cc1` (centres undefined) it was inactive: 0.432%; in that of `O=C(CC1Oc2ccc(Cl)cc2NC1=O)NCc1ccccc1` (centres undefined), inactive: -14.9%; in that of `CCOC(=O)CC(NC(=O)Cn1nnc(-c2ccc(C(F)(F)F)cc2)n1)c1ccc(C)cc1` (centres undefined), inactive: 39.1%. On to `CCOC(=O)c1cccc(NC(=O)CCn2nc(C)c3c(C)n(-c4ccccc4)nc3c2=O)c1`, for which the activation is inactive: -13.3%. For `COCCCNC(=O)C1CCCN(S(=O)(=O)c2ccc3c(c2)oc(=O)n3C)C1` (centres undefined), the activation is inactive: -28.4%.

Regarding `CC1=Nc2cc(C(=O)NC3CCCC3)ccc2Sc2ccc(Br)cc21`, the activation is inactive: -9.71%. In the case of `Cc1cc2c(cc1S(=O)(=O)N(C)CC(=O)Nc1cccc(C#N)c1)OCC(=O)N2` it was inactive: 9.8%. On to `COc1ccccc1C(=O)NCC1(N2CCN(C)CC2)CCCCC1`, for which the activation was inactive: -6.3%. As for `Cc1ccc(C)c(NC(=O)N2CCC(N3CCN(Cc4ccc(F)cc4)C(=O)C3=O)CC2)c1`, the activation was inactive: -14.2%. Turning to `COc1ccccc1CNC(=O)c1ccc(CN2CC(=O)N3CCCCC3C2=O)cc1` (centres undefined), the activation is inactive: -19.9%. `CCN(CC)c1ccc(NC(=O)CN2CCN(CC(=O)Nc3ccccc3OC)CC2)cc1`: the activation is inactive: -14.4%.

Regarding `CCOCCCn1c(SCC(=O)NCCCOC)nc2c(sc3ccccc32)c1=O`, the activation was inactive: 23.2%. With `Cc1c(NC(=O)c2ccccc2)cc(C(C)C)c(O)c1S(=O)(=O)c1ccc(Cl)cc1`, the activation is inactive: -26.6%.

Regarding `Fc1ccc(Nc2ncnc3c2nc2n3CCCC2)cc1`, the activation is inactive: 4.18%. As for `Cc1ccccc1Nc1cc(C(=O)NC2CCCCC2)c2ccccc2n1`, the activation is inactive: 1.23%.

On to `Cn1c(=O)oc2cc(S(=O)(=O)N3CCCC(C(=O)N4CCN(c5ccccc5F)CC4)C3)ccc21` (centres undefined), for which the activation is inactive: 17.7%. As to `CCOC(=O)N1CCc2c(sc3c2c(=O)n(-c2ccc(Cl)cc2)c(=O)n3Cc2cccc(C)c2)C1`, the activation was inactive: -4.7%. Under `CCOCCCNC(=O)c1c[nH]c2ccc(S(=O)(=O)Nc3cccc(Cl)c3C)cc2c1=O` stands active: 64.9%.

Consider `Cc1ccc(C)c(NC(=O)C(Cc2ccccc2)N2Cc3ccccc3C2=O)c1` (centres undefined), for which the activation is inactive: -25.5%. In the case of `Cc1ccc(CCNc2ncnc3onc(C)c23)cc1` it was active: 96.8%.

In the case of `COc1ccccc1N1CCN(S(=O)(=O)c2cc3[nH]c(=O)c(=O)[nH]c3cc2C)CC1`, the activation is inactive: -13.3%. For `O=C(NCCS(=O)(=O)N1CCN(c2ccc(F)cc2)CC1)c1cc(=O)c2ccccc2o1`, the activation was inactive: -14.3%. Regarding `CCOc1ccc(CNC(=O)CCC(=O)N2CCSc3ccccc32)cc1`, the activation is inactive: -8.53%.

As to `Cc1ccc2occ(CC(=O)N(Cc3ccc(N(C)C)cc3)C3CCS(=O)(=O)C3)c2c1` (centres undefined), the activation was inactive: -8.71%. Regarding `CN(C)c1ccc(CNC(=O)c2ccc(NC(=O)c3nsc4ccccc34)cc2)cc1`, the activation is inactive: -15.7%. On to `COc1cccc(Cc2nc3ccccc3nc2SCC(=O)Nc2ccccc2F)c1`, for which the activation was inactive: 2.55%. With `O=C(Cn1c(=O)n(-c2ccccc2)c(=O)c2c3c(sc21)CCCC3)Nc1cccc(F)c1`, the activation was inactive: -18%.

For `CCC1(c2ccccc2)C(=O)NCNC1=O`, the activation was inactive: -12.6% and inactive: -2%. Consider `Cc1c(C(=O)NCc2ccccc2Cl)cccc1-n1cnc2cccnc21`, for which the activation was inactive: 3.7%. Under `Cc1cccc(CNC(=O)c2ccc3nc(-c4ccccc4)c(-c4ccccc4)nc3c2)c1` stands inactive: -5.06%; under `CCC12CN3CC(C)(CN(C1)C3c1c(C)n(C)c3ccccc13)C2=O` (centres undefined), inactive: -6.75%; under `Cc1cccc(NC(=O)Cn2c(=O)n(CCc3ccccc3)c(=O)c3sc4ccccc4c32)c1`, inactive: -6.04%. For the molecule `CC(C)C1N=C2c3ccccc3N=C(SCC(=O)NCc3ccc(F)cc3)N2C1=O` (centres undefined), the activation is inactive: -5.55%. Regarding `CCOC(=O)Cn1c(=O)n(C2CCCCC2)c2nc(-c3ccccc3Cl)nc(C(N)=O)c21`, the activation was inactive: -21%. Turning to `O=C(CSc1nc2c([nH]c3ccccc32)c(=O)n1-c1ccc(F)cc1)N1CCCc2ccccc21`, the activation is inactive: -11.1%. As for `Cc1cccc(C)c1OCc1nc2c3cnn(-c4ccccc4Br)c3ncn2n1`, the activation is inactive: -4.73%. With `COc1cc(NC(=O)c2cc(C3CC3)nc3c2c(C)nn3-c2ccc(C)cc2)cc(OC)c1`, the activation is inactive: -15.4%.

Take `Nc1c(-c2nc(-c3ccc(Cl)cc3)no2)nnn1-c1ccc(C(F)(F)F)c(Cl)c1`: the activation is inactive: -1.17%.

On to `O=C(NC1CCCCC1)c1cc(Nc2ccccc2)nc2ccccc12`, for which the activation is inactive: 3.13%. With `COC(=O)c1ccc(NC(=O)CCNS(=O)(=O)c2cccc3nsnc23)cc1`, the activation was inactive: 1.92%. As to `COc1ccc(-c2c(C)nn3c(-c4ccccc4)cc(-c4ccccc4)nc23)cc1OC`, the activation is inactive: -12%. Under `COc1ccc(CCN2C(=O)c3[nH]nc(-c4ccccc4O)c3C2c2ccc(O)c(OC)c2)cc1` (centres undefined) stands inactive: -0.509%. As to `CCOC(=O)CC(NC(=O)c1cc2c(=O)n3cccc(C)c3nc2s1)c1ccc(OCC(C)C)c(OC)c1` (centres undefined), the activation is inactive: -2.32%. Consider `CCC(CC)C(=O)Nc1nnc2n1CCS2`, for which the activation was inactive: -1.46%. `CC(=O)N[C@H](C(=O)O)C(C)(C)SN=O`: the activation is inactive: -1.72%. Regarding `Cc1ccc(S(=O)(=O)N2CCCc3cc(NC(=O)c4ccccc4Cl)ccc32)cc1`, the activation is inactive: -9.23%.

Take `CCN(CC)S(=O)(=O)c1ccc2c(c1)N(CC(=O)Nc1ccc(F)cc1)C(=O)CO2`: the activation was inactive: -32.9%. In the case of `COc1ccc(CCNC(=O)CCCCCn2c(SCC(N)=O)nc3cc4c(cc3c2=O)OCO4)cc1OC`, the activation is inactive: -3.85%. As to `Cc1ccc(C)c(N(C)C(=O)C2CCN(c3ncnc4c3nc3n4CCCCC3)CC2)c1`, the activation was inactive: -6.61%. Regarding `COc1ccc(NC(=O)N(Cc2nnc3n2CCCCC3)c2ccc(OC)c(Cl)c2)cc1`, the activation was inactive: 17.3%.

`O=C(Nc1c(C(=O)c2ccc(F)cc2)oc2ccccc12)c1cc(-c2ccccc2)on1`: the activation was inactive: 8.5%. On to `Cc1ccc(CNCc2c(C(=O)O)c(C)n(Cc3ccc(C)cc3)c2C)cc1`, for which the activation is inactive: 5.01%. As for `Cn1cnc(S(=O)(=O)N2CCCC(C(=O)Nc3cccc(C#N)c3)C2)c1` (centres undefined), the activation was inactive: -9.45%. In the case of `CCN(CC)S(=O)(=O)c1nnc(NC(=O)COc2cccc(C)c2)s1`, the activation was inactive: 17.7%. In the case of `COCCNC(=O)CSc1nc2ccccc2nc1Cc1ccc(C)cc1`, the activation was inactive: -3.5%. In the case of `COc1cccc(N2CCN(c3ccc4nnc(CCC(=O)O)n4n3)CC2)c1` it was inactive: 9.01%; in that of `CCOc1ccc(CNC(=O)c2ccc3nc(CC)c(CC)nc3c2)cc1OC`, inactive: -0.894%; in that of `CCc1ccc(S(=O)(=O)c2c(C(=O)c3ccc(C)c(C)c3)cnc3ccccc23)cc1`, inactive: -20.7%. With `COc1ccc(-c2nc3sc(CCNC(=O)C(C)(C)C)c(C)n3n2)cc1`, the activation was inactive: 1.4%.

In the case of `CNC(=O)C1CCCN(c2nnc(C)c3c(C)n(-c4ccccc4)nc23)C1` (centres undefined), the activation is inactive: 2.5%. Under `CCOCCCNC(=O)c1ccc(-c2nc(CS(=O)(=O)c3ccccc3)c(C)o2)cc1` stands inactive: -4.6%.

(Values after PubChem BioAssay AID1346428 (National Center for Advancing Translational Sciences (NCATS), 2018).)
